Test results published in ChEMBL document CHEMBL4888484, “Replenishing the malaria drug discovery pipeline: Screening and hit evaluation of the MMV Hit Generation Library 1 (HGL1) against asexual blood stage Plasmodium falciparum ,using a nano luciferase reporter read-out” (2022).
In all, about 150,000 compounds went through this assay and about 540 (0.36%) showed an effect of 50% or more. Some of the results follow.

Tested on: Plasmodium falciparum
Assay: Primary screen in NF54 nanoGlo assay, in single point, at 2uM, 72h; a lower Z score goes with more inhibition
Assay type: functional, Erythrocyte
Conditions: timepoint 72 hour

Which “% Inhibition” value does the source give for `CCCCCC(=O)N[C@H]1C[C@@H](C)N(C(=O)Nc2cccc(Cl)c2)c2ccc(C)cc21` here?
Its value is -11%.

What about the Z score of the same compound?
Its Z score is 1.39.

How did the “% Inhibition” value turn out when `C[C@H](NC(=O)OCc1ccccc1)C(=O)N1CCOC(c2ccccc2)C1` (stereo partly specified) was run?
The value was -4%.

And the Z score?
Its Z score is 0.7.

With `CCCc1noc(CN(C)C(=O)CNS(C)(=O)=O)n1` as the compound, how does the “% Inhibition” value read?
The value was -4%.

And the Z score?
Its Z score is 0.79.

Which results are given for `O=C(Cc1n[nH]c(=O)c2ccccc12)NCc1nnc2ccccn12`?
% Inhibition: -11%; Z score: 1.52

For `COc1ccc(C(=O)NC[C@@]23CCCC=C2N(CC2CC2)C(=O)CC3)cc1`, which “% Inhibition” value is on record?
Its value is -9%.

What about the Z score of the same compound?
Its Z score is 1.34.

`O=C1C[C@H](c2nc(-c3ccncc3)no2)CN1c1ccccc1` was tested. Which “% Inhibition” value did it give?
The value was -15%.

And the Z score?
Its Z score is 1.59.

`CC(C)(C)c1ccc(C(=O)N2CCC3(CC2)C(=O)N(CC(=O)N2CCCCC2)CN3c2ccccc2)cc1` was tested. Which “% Inhibition” value did it give?
Its value is -13%.

What about the Z score of the same compound?
Its Z score is 1.99.

Which “% Inhibition” value does the source give for `C[C@@H](c1cccnc1)N(Cc1ccc(OC(F)F)c(F)c1)CC1CCOCC1` here?
The value was 16%.

And the Z score?
The Z score was -2.12.

Which “% Inhibition” value does the source give for `Cc1nn(-c2ccccc2)c2nc(C(=O)N(C)CC(=O)N3CCOCC3)ccc12` here?
The value was -10%.

What about the Z score of the same compound?
The Z score was 1.19.

With `Cc1ccc(C)c(NS(=O)(=O)c2cc(-c3nc(C)cs3)n(CC(=O)N3CCCC3)c2)c1` as the compound, how does the “% Inhibition” value read?
Its value is 3%.

What about the Z score of the same compound?
Its Z score is -0.32.

What does the source list for `OCc1ccc(-c2cccc3c2CCC3)cn1`?
% Inhibition: -15%; Z score: 1.48

For `O=C(CCc1cnccn1)NCCCn1cc(Cl)cn1`, which “% Inhibition” value is on record?
Its value is -8%.

And the Z score?
The Z score was 1.26.

Which results are given for `Cc1sc(S(N)(=O)=O)cc1NC(=O)NCCc1csc(N2CCCC2)n1`?
% Inhibition: -5%; Z score: 0.98

`CCc1csc(-c2ccc(S(=O)(=O)NCc3ccccc3C(F)(F)F)s2)n1` was tested. Which “% Inhibition” value did it give?
Its value is -1%.

And the Z score?
The Z score was 0.13.

`Cc1ccc(N2C(=O)N(Cc3c(C)noc3C)S(=O)(=O)c3cccnc32)cc1F` was tested. Which “% Inhibition” value did it give?
Its value is -25%.

What about the Z score of the same compound?
Its Z score is 2.56.

For `Cc1ccc([C@H](C)NCc2nnc(C(C)C)n2C)o1`, which “% Inhibition” value is on record?
Its value is -14%.

And the Z score?
Its Z score is 1.87.

What does the source list for `CC1(C)C[C@H](NCc2cccnc2OCC(F)F)C(C)(C)O1`?
% Inhibition: -4%; Z score: 0.67

Which “% Inhibition” value does the source give for `O=C(NCC(=O)N(C[C@H]1CCCO1)C1(C(=O)NC2CCCCC2)CCCCC1)c1ccccc1` here?
Its value is 49%.

And the Z score?
Its Z score is -6.38.

With `Cc1ccc([C@@H](c2ccncc2)n2ccnc2-c2ccco2)cc1` as the compound, how does the “% Inhibition” value read?
Its value is -4%.

What about the Z score of the same compound?
Its Z score is 0.57.

Which results are given for `O=C(NC1CC1)[C@@H]1CN(Cc2cc(F)cc(F)c2)C[C@H]1CO`?
% Inhibition: -6%; Z score: 0.92

Which results are given for `O=C(Cc1cncs1)N1CCC[C@H](OCCO)C1`?
% Inhibition: -2%; Z score: 0.33

Which “% Inhibition” value does the source give for `Cc1c[nH]c(CN(C)Cc2ccc(-n3cccn3)cc2)c(C)c1=O` here?
Its value is 4%.

What about the Z score of the same compound?
Its Z score is -0.54.

How did the “% Inhibition” value turn out when `O=C(NCc1ccccn1)c1cn2cc(C(F)(F)F)cc(Cl)c2n1` was run?
The value was -18%.

What about the Z score of the same compound?
The Z score was 3.52.

How did the “% Inhibition” value turn out when `CCN(CC)C[C@H](C)NS(=O)(=O)CCNS(=O)(=O)c1ccccc1` was run?
The value was -16%.

What about the Z score of the same compound?
Its Z score is 2.

With `CCCNC(=O)[C@@H]1CCCC[C@@H]1C(=O)Nc1c(C)c(C)cc2[nH]c(=O)[nH]c12` as the compound, how does the “% Inhibition” value read?
The value was -8%.

What about the Z score of the same compound?
The Z score was 0.9.

`CCC1(NC(=O)N2CCN(c3ccccc3)C(=O)[C@@H]2C)CCCC1` was tested. Which “% Inhibition” value did it give?
The value was -12%.

What about the Z score of the same compound?
Its Z score is 1.16.

For `O=C1c2ccccc2C(=O)N1Cc1nc2ccccc2c(=O)[nH]1`, which “% Inhibition” value is on record?
Its value is 0%.

What about the Z score of the same compound?
The Z score was 0.01.

`Cc1cc(NC(=O)NCC(C2CC2)C2CC2)n(Cc2ccccn2)n1` was tested. Which “% Inhibition” value did it give?
The value was -15%.

What about the Z score of the same compound?
Its Z score is 1.31.

For `C[C@@H](CN1CCOCC1)N1CCN(c2ccnc(N(C)C)n2)CC1`, which “% Inhibition” value is on record?
The value was -10%.

What about the Z score of the same compound?
Its Z score is 1.45.

Which results are given for `CN(CC(=O)c1ccc(O)cc1)C(=O)c1cc2ccccc2n1C`?
% Inhibition: 22%; Z score: -3.16

With `COc1cccn(Cc2noc([C@@H]3CCCO3)n2)c1=O` as the compound, how does the “% Inhibition” value read?
Its value is -10%.

What about the Z score of the same compound?
The Z score was 1.63.

Which “% Inhibition” value does the source give for `COc1ccc(Cl)cc1N1CCN(C(=O)c2cccs2)[C@@H](C)C1=O` here?
The value was 8%.

And the Z score?
The Z score was -1.6.

How did the “% Inhibition” value turn out when `CCc1cc(-c2nc([C@H]3CCOC3)no2)ccn1` was run?
The value was -11%.

What about the Z score of the same compound?
The Z score was 1.74.

With `CCNC(=O)Nc1ccc(-c2cn(C(F)F)nc2C)cc1` as the compound, how does the “% Inhibition” value read?
The value was 7%.

What about the Z score of the same compound?
Its Z score is -0.89.

What does the source list for `CC(C)Nc1ncccc1S(C)(=O)=O`?
% Inhibition: -12%; Z score: 1.56

How did the “% Inhibition” value turn out when `CC(C)N(CC(N)=O)Cc1ccsc1` was run?
Its value is 32%.

And the Z score?
The Z score was -3.58.

`CN(C(=O)OC(C)(C)C)C1(C(=O)N2CC[C@](C)(C(N)=O)C2)CCC1` was tested. Which “% Inhibition” value did it give?
The value was -11%.

What about the Z score of the same compound?
The Z score was 1.45.

For `O=C(Cn1nc2n(c1=O)CCCC2)Nc1cccc(C(F)(F)F)c1`, which “% Inhibition” value is on record?
The value was -11%.

What about the Z score of the same compound?
The Z score was 1.49.

`Cc1ccccc1Cc1nnn(C[C@H](O)COCc2ccco2)n1` was tested. Which “% Inhibition” value did it give?
Its value is -11%.

And the Z score?
Its Z score is 1.41.

Which results are given for `N#Cc1cc(S(=O)(=O)N[C@H]2CCCS(=O)(=O)C2)ccc1Cl`?
% Inhibition: -19%; Z score: 1.71

Which “% Inhibition” value does the source give for `CC(C)n1ccc(C(=O)N(C)C[C@@H](O)Cc2ccccc2)n1` here?
Its value is -2%.

And the Z score?
Its Z score is 0.32.

How did the “% Inhibition” value turn out when `Cn1cc(C(O)CNC2CC(OC(C)(C)C)C23CCC3)cn1` (stereo unspecified) was run?
Its value is -8%.

And the Z score?
Its Z score is 1.05.

For `Cc1nc(C)c(CC(=O)N2CCC3(CC2)Cc2cn(nn2)CCCOc2ccc(cc2)CCNC3=O)c(=O)[nH]1`, which “% Inhibition” value is on record?
Its value is 4%.

And the Z score?
The Z score was -0.7.
